This note sets out measurements from ChEMBL document CHEMBL4888484, “Replenishing the malaria drug discovery pipeline: Screening and hit evaluation of the MMV Hit Generation Library 1 (HGL1) against asexual blood stage Plasmodium falciparum ,using a nano luciferase reporter read-out” (2022).

Each structure is given as a SMILES string. Hit rate of the full screen: of about 150,000 compounds, about 540 (0.36%) showed an effect of 50% or more. The list shows a part of the results.

This assay relates to Plasmodium falciparum. Kind of assay: Primary screen in NF54 nanoGlo assay, in single point, at 2uM, 72h; a lower Z score goes with more inhibition. The class given is functional, Erythrocyte. The settings on record: timepoint 72 hour.
Take `CCCCN(CC(N)=O)C(=O)Cc1ccc(C)cc1`: the “% Inhibition” value amounted to 0% and the Z score is -0.06.
For `O=C1N2CCCc3cccc(c32)C12OCCO2` the same measures were -10% and 1.61.
For `Cc1cc(-c2nc(-c3ccc4[nH]c(=O)[nH]c4c3)cs2)ccc1F` the same measures were -2% and 0.34.
For `CS(=O)(=O)CC1(NC(=O)c2ccsc2C(F)F)COC1` the same measures were -8% and 0.86.
`CC1CC(C)CN(C(=O)c2ccc3c(=O)n4c(nc3c2)CCCC4)C1` (centres undefined): the “% Inhibition” value is listed as -3% and the Z score amounted to 0.52.
For `CC[C@H]1COCCN1C(=O)[C@H](Cc1ccccc1)N(C)C`, in that order: -13% and 1.79.
For `Cc1nn(C)c(Cl)c1CN(C)C(=O)[C@H]1CCOC1` the same measures were -6% and 1.13.
For `CC(C)Cc1cc(C(=O)N2CC[S@@+]([O-])C(C)(C)C2)[nH]n1`, in that order: -10% and 1.05.
For the compound `O=C([C@H]1CC(=O)N(C2CCOCC2)C1)N1CCN(c2ncccn2)CC1`, the “% Inhibition” value was -10% and the Z score came out at 1.51.
For `CC[C@H](C)Cc1nc(-c2cc(C(F)F)nn2C)n(CCO)n1` the same measures were 11% and -1.48.
For `O=c1ccc2[nH]ccc2n1C[C@H]1COCCO1`, in that order: 2% and -0.33.
Take `CCOC(=O)[C@@H]1CCCCN1CCN1C(=O)NC(C)(C)C1=O`: the “% Inhibition” value is listed as -4% and the Z score was found to be 0.56.
For `Cc1cc(F)ccc1C(=O)N1CCC2CCC(C1)N2C(C)C` (centres undefined) the same measures were -11% and 1.95.
For `Cc1cc2n(n1)[C@H](C(F)(F)F)CCN2C(=O)c1cccc(=O)n1C`, in that order: -11% and 1.68.
Consider `COc1cccc2nc(NC(=O)N3CCN(C)[C@H](c4nc(C)no4)C3)sc12`, for which the “% Inhibition” value amounted to 5% and the Z score is on record as -1.02.
For `c1ccc2oc(NC[C@H]3CN(C4CC4)CCO3)nc2c1`, in that order: 1% and -0.12.
For `COC(=O)C1CC(O)CN1Cc1cnn(C)c1C(F)(F)F` (centres undefined), in that order: 3% and -0.35.
For `Cc1cccc(CN2CCC(O)(c3ccc4oc(C(=O)N5C[C@@H](C)O[C@@H](C)C5)cc4c3)CC2)c1` the same measures were 1% and -0.26.
In the case of `O=S(=O)(c1cc(Cl)ccc1F)N1CCC[C@H](n2ccnn2)C1`, the “% Inhibition” value is given as -1% and the Z score came out at 0.17.
For `CCOc1cc(C(N)=O)cc(Br)c1OCC`, in that order: -3% and 0.52.
For `CC1(C(=O)O)CCN(Cc2ccccc2OCCN2CCOCC2)CC1` the same measures were 9% and -1.3.
For `CNc1nc(C(=O)N2CCN([C@H](C#N)c3ccccc3)CC2)cs1`, in that order: -2% and 0.22.
In the case of `O=C(c1cc(C2CC2)[nH]n1)N1C[C@H]2CC[C@@H](O)[C@H]2C1`, the “% Inhibition” value was -9% and the Z score is on record as 0.88.
For `Cc1csc(C(=O)Nc2cnc3cc(C)nn3c2)c1`, the “% Inhibition” value was -16% and the Z score is listed as 2.01.
Turning to `O=C(NCc1cccc(C(F)(F)F)c1)c1coc(CN2CCN(Cc3ccc(F)cc3F)CC2)n1`, the “% Inhibition” value was -8% and the Z score amounted to 1.32.
For `O=C(CC1CC2CCC1O2)NS(=O)(=O)c1ccc2c(c1)C(=O)CCC2` (centres undefined), in that order: -9% and 1.66.
For `Cc1ccc(CNCc2c(C(=O)O)c(C)n(-c3ccc(Cl)cc3)c2C)cc1` the same measures were -8% and 0.99.
With `COCc1n[nH]c(-c2ccc3c(c2)OCO3)n1`, the “% Inhibition” value is listed as -6% and the Z score is listed as 1.2.
For `CCN1c2ccccc2C(=O)NC12CCN(C(=O)c1ccc(F)cc1)CC2` the same measures were -3% and 0.52.
For `COc1ccc(CCNC(=O)C(=O)Nc2ccc(N3CCCS3(=O)=O)cc2)cc1`, in that order: -13% and 1.72.
For `O=C(Nc1cccc(-c2cc(F)cc3cccnc23)c1)c1ccc2c(c1)OCO2`, in that order: -8% and 1.54.
Take `COc1ccc(NC(=O)N(C)C2CCCC2S(C)(=O)=O)cc1OC(F)F` (centres undefined): the “% Inhibition” value stood at 1% and the Z score was -0.17.
For `O=C(Nc1nc(CN2CCc3ccccc3C2)cs1)c1ccccc1Cl` the same measures were -4% and 0.86.
For `Cc1ccsc1CN(C)S(=O)(=O)N1CC(C)OCC1C` (centres undefined), in that order: -7% and 0.89.
Take `CC[C@H](C)Oc1c(CN2CCC3(CC2)CN(C)CCN3C)cccc1OC`: the “% Inhibition” value was -28% and the Z score came to 2.5.
For `CC[C@H](C)CNC(=O)c1n[nH]c2c1CN(C(=O)Cc1ccc(C)cc1)CC2` the same measures were -8% and 1.27.
With `CN(Cc1cnn(-c2ccccc2)c1)c1ccc(C(N)=O)cn1`, the “% Inhibition” value is listed as -2% and the Z score is 0.23.
For `CCNC(=O)CCN(C)Cc1cccnc1` the same measures were -7% and 0.64.
In the case of `O=C(N[C@@H](Cc1c[nH]c2cc(F)ccc12)C(=O)O)c1ccsc1`, the “% Inhibition” value is reported as -4% and the Z score turned out to be 0.37.
For `CNC(=O)[C@@H]1CCCN1C(=O)NCc1ccco1` the same measures were 28% and -3.7.
For `O=C(CN1CCN(c2ncnc3sccc23)CC1)NC[C@H]1CCCO1`, the “% Inhibition” value is -4% and the Z score amounted to 0.43.
For the compound `Cc1ccnc(Oc2cc(NC(=O)C3(CN)CCCC3)ccc2C)c1`, the “% Inhibition” value is listed as -16% and the Z score is reported as 1.76.
